Data on 112 molecules can be found in PubChem BioAssay AID1240 (Sanford-Burnham Center for Chemical Genomics, 2008).

About 800 (1.6%) of roughly 50,000 compounds showed an effect of 50% or more. The list shows a part of the results.

The assay addresses Bcl-2-like protein 10 (Homo sapiens) (UniProt Q9HD36). Put plainly: TR3 peptide-Bcl-B binding displacers, biochemical primary FP assay, phenotype converters (AID 1240).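 Note: 0% = Bcl-B with tracer peptide and DMSO and 100% = tracer peptide lacking Bcl-B.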 Conditions: GST-Bcl-B / FITC-TR3 peptide fluorescence polarization; stronger effect = higher value; compound at 3.75 mg/L. A general note: In fluorescence polarisation assays a small probe gives low polarisation when free and higher when bound to something large.
Sequence of UniProt Q9HD36 (Q9HD36 whole entry, looked up): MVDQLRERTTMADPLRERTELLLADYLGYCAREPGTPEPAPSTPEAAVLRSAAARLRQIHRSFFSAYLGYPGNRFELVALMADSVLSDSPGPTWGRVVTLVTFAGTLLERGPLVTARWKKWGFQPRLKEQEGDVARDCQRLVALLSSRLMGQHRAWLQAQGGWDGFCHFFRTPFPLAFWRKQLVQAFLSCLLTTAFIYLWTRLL
As for `CCC1(C)CC(C(CCNCc2ccc(F)cc2)c2ccc(C)cc2)CCO1` (configuration not stated), the displacement was -6%.

As to `CCOc1ccc2cc(S(=O)(=O)n3ccnc3)ccc2c1`, the displacement was -1.3%.

With `O=c1oc2ccccc2cc1-c1csc(N/N=C/c2ccco2)n1`, the displacement was found to be 8.6%.

In the case of `Cc1ccc(C(=O)/C=C/c2ccccc2[N+](=O)[O-])cc1`, the displacement was determined as 12.6%.

In the case of `COc1ccc(-c2nn(-c3ccccc3)cc2/C=c2\sc3nc(-c4ccc(C)cc4)nn3c2=O)cc1`, the displacement came out at 8.3%.

In the case of `Cc1cccc(C)c1OCCCSC#N`, the displacement came to 8.2%.

Regarding `CS(=O)(=O)N(CC(O)Cn1c2ccccc2c2ccccc21)c1ccccc1` (configuration not stated), the displacement was 19%.

On to `O=C(Nc1ccc(S(=O)c2ccc(NC(=O)c3cccs3)cc2)cc1)c1cccs1`, for which the displacement stood at 3.9%.

For `O=C(Nc1ccccc1CO)c1ccc(I)cc1`, the displacement is 2.2%.

Consider `CN(C)C(=O)C(=O)c1c[nH]c2ccccc12`, for which the displacement came out at 11.1%.

For `Cc1occc1C(=O)NNC(=O)Nc1ccc(Cl)c(Cl)c1`, the displacement stood at 0.1%.

For the molecule `CC(C)COC1CS(=O)(=O)CC1OCC(C)C` (configuration not stated), the displacement was -2.6%.

Take `COc1cc(C=Nc2cc(Cl)cc(Cl)c2)ccc1O`: the displacement is -10.4%.

In the case of `O=C1c2ccccc2NC(c2ccc(Cl)cc2)N1Cc1ccccc1` (configuration not stated), the displacement was determined as 9.2%.

`O=C(Nc1c[nH]c(=O)[nH]c1=O)c1cccc(N2C(=O)c3ccc([N+](=O)[O-])cc3C2=O)c1`: the displacement was -10.7%.

With `O=C(O)c1ccc(S(=O)(=O)NCC2CCCO2)cc1` (configuration not stated), the displacement turned out to be 10.6%.

With `CCCc1cc2c(-c3ccccc3)cc(=O)oc2cc1OC`, the displacement amounted to 20.8%.

Turning to `COc1ccc(N(CC(=O)Nc2ccc(C)cc2)S(C)(=O)=O)c(OC)c1`, the displacement was -11%.

As for `CCOC(=O)/C=C(\C)Nc1nc(S(=O)(=O)c2ccc(C)cc2)c(Cl)s1`, the displacement was -12%.

`O=C1S/C(=C\c2cccs2)C(=O)N1c1ccccc1`: the displacement was 12.7%.

With `CC1(C)CC(=O)C=C(NCCN2CCN(C(=O)Nc3ccc(Cl)c(Cl)c3)CC2)C1`, the displacement was -7.6%.

On to `C=CCc1cccc(/C=N/NC(=O)CSc2nnc(-c3ccccc3)n2-c2ccccc2)c1O`, for which the displacement was 20.1%.

Take `Cc1c(C#N)c(=O)ncn1Cc1ccccc1`: the displacement was -14.8%.

With `O=C(O)c1cccc(N/C(=N\S(=O)(=O)c2ccccc2)c2ccccc2)c1`, the displacement is -2.4%.

In the case of `O=C1c2cc(S(=O)(=O)n3cnc4ccccc43)ccc2-c2ccc(S(=O)(=O)n3cnc4ccccc43)cc21`, the displacement was found to be 13.8%.

Take `O=C1CCCC2=C1C(c1cccc(Br)c1)C1=C(CCCC1=O)O2`: the displacement turned out to be 9.2%.

Take `CCOC(=O)c1sc(NC(=O)c2cc(OC)cc(OC)c2)c(C(N)=O)c1C`: the displacement amounted to 10.7%.

For the molecule `Cc1c(OC(C)C)ccc2c1oc(=O)c1ccccc12`, the displacement amounted to 17.5%.

For `CSc1ccc(S(=O)(=O)N(CC(=O)Nc2ccc(C(C)=O)cc2)c2ccc(C)cc2)cc1`, the displacement is 13.1%.

For `C#CCSc1nc2sc3c(c2c(=O)n1CC=C)CCC3`, the displacement was -1.3%.

Take `O=C(CC1OC(=O)c2ccccc21)c1ccccc1` (configuration not stated): the displacement is 1%.

In the case of `CCOc1ccccc1NC(=O)CSCc1ccccc1`, the displacement was -1.2%.

With `COc1ccc(C(=O)NCC(C)C)cc1OC`, the displacement is -63.9%.

As to `CCC(=O)Nc1nc(C)c(-c2csc(Nc3ccc(C(=O)O)cc3)n2)s1`, the displacement is 2.7%.

As for `CCOC(=O)c1c(-c2ccccc2)oc2ccc(OC(=O)c3ccco3)cc12`, the displacement is 99.8%.

As for `CCn1c(O)c(N=NC(=O)c2ccccc2[N+](=O)[O-])c2ccccc21`, the displacement turned out to be 4.2%.

On to `COc1ccc(/C=N\Nc2cc(C)c3ccccc3n2)cc1`, for which the displacement was 2.4%.

Consider `N#CC(C#N)=C1C(=O)N(Cc2ccc3c(c2)OCO3)c2ccccc21`, for which the displacement worked out at 45.9%.

Turning to `O=C(Nc1ccc([N+](=O)[O-])cc1O)C1CC1(c1ccccc1)c1ccccc1` (configuration not stated), the displacement is -5.1%.

In the case of `CCOc1cc2c(c([N+](=O)[O-])c1)NC(c1ccccc1F)C1CC=CC21` (configuration not stated), the displacement was -10.8%.

In the case of `O=C1NN(c2ccc(Cl)c(Cl)c2)C(=O)/C1=C/c1ccccc1O`, the displacement turned out to be 28.7%.

On to `CCCOc1cccc(C(=O)Nc2ccc(I)cc2Cl)c1`, for which the displacement came to 10.7%.

Take `Cc1c(-c2cccc(Cl)c2)nc2ccccc2c1C(=O)O`: the displacement was 1%.

For the molecule `Cc1ccnc(NC(=S)NC(=O)c2ccc(Cl)cc2)c1`, the displacement was -2.4%.

`Cc1nc2cc(-c3ccccc3)[nH]n2c(=O)c1Cl`: the displacement worked out at 15.7%.

In the case of `O=C(/C=C/c1ccc(-c2cccc(Cl)c2)o1)c1cccs1`, the displacement was -65%.

Take `Cc1ccc(C(O)(C(=O)Nc2ccccn2)c2ccc(C)cc2)cc1`: the displacement is -0.3%.

For the molecule `CCN(CC)c1ccc(-n2c(O)c(C3=c4ccccc4=NC3=O)sc2=S)cc1`, the displacement is 3.3%.

In the case of `COc1ccc(N2C(=O)C3C4C=CC(C4=C(C)C)C3C2=O)cc1` (configuration not stated), the displacement came to 120%.

On to `O=[N+]([O-])c1ccc(Cl)cc1NCCOc1ccc(F)cc1`, for which the displacement came out at 9.1%.

`COc1ccc(CCN2C(=O)CSC2c2ccc(F)cc2)cc1OC` (configuration not stated): the displacement was -13.2%.

With `CCCCc1cccc(C(=O)CSc2nc(C)c(C)c(C)c2C#N)c1`, the displacement was 0.6%.

For `C=CCn1c(O)c(N=NC(=O)c2ccc3ccccc3n2)c2ccccc21`, the displacement is -1.6%.

As for `O=[N+]([O-])c1ccc2nc(Sc3ccccn3)sc2c1`, the displacement is -5.6%.

Consider `COc1ccc(CCNC(=O)c2ccc(C)c([N+](=O)[O-])c2)cc1`, for which the displacement is -10.8%.

With `Nc1cc(Cl)c(S(=O)(=O)NC2CCCCC2)cc1S(=O)(=O)NC1CCCCC1`, the displacement was -2.5%.

On to `O=C(Nc1nc2ccc([N+](=O)[O-])cc2s1)c1cc(Cl)ccc1Cl`, for which the displacement came to 2.2%.

For the molecule `CCOC(=O)C1=C(O)/C(=C/c2ccc(C)cc2)SC1=Nc1cccc(Cl)c1`, the displacement is -4.5%.

As for `CCCC(=O)Nc1ccc(NC(=O)c2ccc(Cl)c(Cl)c2)cc1`, the displacement is 11.4%.

In the case of `CCOC(=O)c1c(Nc2ccccc2)sc(C=NCc2ccc(Cl)cc2)c1O`, the displacement was -9%.

For the molecule `CC(=O)c1ccc(N/C(=N/S(=O)(=O)c2ccc(Cl)cc2)c2ccccc2)cc1`, the displacement was 16.1%.

Consider `O=C(N/N=C/c1ccc(I)o1)c1ccncc1`, for which the displacement came out at 7.8%.

Turning to `CCC(=O)Nc1nc2ccccc2n1CCN(C)C`, the displacement is -6%.

As to `CCCC(=O)Nc1cc(OC)ccc1OC`, the displacement was 7.5%.

Turning to `O=C(c1sc2ccccc2c1Cl)N1CCN(c2ccc(Cl)cc2[N+](=O)[O-])CC1`, the displacement amounted to 7.3%.

For the molecule `CCOC(=O)/C(=C/C=C/N(C1CCCCC1)C1CCCCC1)C(C)=O`, the displacement was 0.6%.

As for `O=C(NCCN1CCOCC1)C(c1ccccc1)c1ccccc1`, the displacement was 8.1%.

Regarding `CCOc1ccc(NC(=O)c2ccc3ccccc3n2)cc1`, the displacement was found to be 0.5%.

For `N#CCOc1ccccc1/C=C/c1[nH]c(=O)[nH]c(=O)c1[N+](=O)[O-]`, the displacement was 6%.

Regarding `COc1ccc(C(=O)CSc2nc3cc(OC)ccc3n2Cc2ccccc2)cc1`, the displacement is -24%.

In the case of `CCOC(=O)C1=NNC2C(=O)N(c3ccc(C)c(C)c3)C(=O)C12` (configuration not stated), the displacement came to 4.5%.

Turning to `C#CCSc1nc2ccccc2n1C(=O)c1ccc(S(=O)(=O)N2CCCCC2)cc1`, the displacement was -7.5%.

As to `CC(=O)Nc1ccc(NC(=O)Cn2cnc3c2c(=O)n(C)c(=O)n3C)cc1`, the displacement worked out at 12.7%.

With `N/C(=N\OC(=O)Cc1ccc(Cl)cc1)c1ccncc1`, the displacement is -6%.

On to `Cn1c(=O)[nH]c2nc(-c3ccccc3)[nH]c2c1=O`, for which the displacement amounted to 2.6%.

As to `COc1ccc(N2C(=O)/C(=C3/C(=O)N(Cc4ccccc4F)c4ccccc43)SC2=S)cc1`, the displacement was -0.4%.

Regarding `COc1ccccc1Cc1noc(-c2ccc(Br)cc2)n1`, the displacement was -4.5%.

Consider `CC(C)CC(=O)N1CCN(Cc2cccn2C)CC1`, for which the displacement was determined as 15%.

As to `CC(O)CNC(=O)C(=O)NCc1ccc2c(c1)OCO2` (configuration not stated), the displacement stood at 8.5%.

With `C=CCS(=O)(=O)Nc1cccc2ccccc12`, the displacement was 6.3%.

For `CC(C)(O)C1=NOC(c2ccccc2)C1` (configuration not stated), the displacement was -13.4%.

Regarding `CN1C(=O)/C(=C\c2ccc(OC(=O)c3cccc(Br)c3)cc2)SC1=S`, the displacement stood at 15.4%.

For the molecule `O=C(CNc1cccc2ccccc12)N/N=C/c1cn(Cc2ccccc2)c2ccccc12`, the displacement was determined as 1.1%.

On to `O=C1CS/C(=N/N=C/c2ccc3c(c2)OCO3)N1`, for which the displacement is -8.7%.

Turning to `Cc1ccc(CN2C(=O)CSC2c2cn(-c3ccccc3)nc2-c2ccccc2)cc1` (configuration not stated), the displacement worked out at 10.5%.

Take `CCOC(=O)C1CCN(C2=NC(=O)/C(=C/c3ccc(N(C)C)cc3)S2)CC1`: the displacement is -19.9%.

`Cc1cc(Cn2ccnc2)c(C)c([N+](=O)[O-])c1Cn1ccnc1`: the displacement amounted to 0%.

For `CC(=O)Oc1cccc(Oc2ccc([N+](=O)[O-])cc2)c1`, the displacement is 4.5%.

In the case of `COc1cc(-c2nc3nnc(C)n3[nH]2)cc(OC)c1OC`, the displacement is 16.6%.

For `COc1ccccc1NS(=O)(=O)c1cc([N+](=O)[O-])ccc1Cl`, the displacement turned out to be 10%.

Regarding `CC(C)(C#CCN1CCOCC1)OCCC#N`, the displacement is -15.5%.

`Cc1ccc(O)c(C=Nc2cccc3nsnc23)c1`: the displacement is -10.4%.

Regarding `N/C(=N\c1nc2ccccc2o1)NC(=O)/C=C/c1ccco1`, the displacement is -28.3%.

Consider `Cc1ccc(C23CC4CC(CC(C(=O)Nc5ccc(C(=O)O)cc5)(C4)C2)C3)cc1`, for which the displacement amounted to 4.9%.

In the case of `COc1ccc([N+](=O)[O-])cc1/C=C1\SC(=S)N(C2CCCCC2)C1=O`, the displacement is -1%.

Consider `COc1cc(NC(=O)Cc2ccc(OC)c(OC)c2)cc(OC)c1`, for which the displacement is -5.3%.

With `c1ccc(CN2CCC(N3CCN(C4CCCCC4)CC3)CC2)cc1`, the displacement was 1.5%.

Regarding `CCc1c(C)sc(NC(=O)c2ccncc2)c1C(=O)OC`, the displacement was 3.8%.

Consider `COC(=O)C1=C(C)NC(C)=C(C(=O)OC)C1c1ccc(Cl)cc1`, for which the displacement amounted to 4.5%.

With `O=c1[nH]cc(N=Cc2ccccc2)c(=O)[nH]1`, the displacement is -2.8%.

As for `CC1(C)C(C=C(Cl)Cl)C1C(=O)Nc1cccc2ccccc12` (configuration not stated), the displacement turned out to be 12.4%.

In the case of `Cc1ccnc(SC2CC(=O)N(c3ccccc3)C2=O)n1` (configuration not stated), the displacement came out at 12.3%.

With `CC(C)(C)c1ccc(C(=O)O/N=C(\N)c2cccc([N+](=O)[O-])c2)cc1`, the displacement is -9%.

As for `CCC(=O)Oc1ccc2c(C)c(CC)c(=O)oc2c1`, the displacement was -9.3%.

For `CN(c1ccc(C(N)=O)cc1)S(=O)(=O)c1ccccc1`, the displacement is -1.3%.

`Cc1nc2sc3c(c2c(=O)[nH]1)CCCC3`: the displacement stood at 16.9%.

Turning to `COc1ccc(S(=O)(=O)NNC(=O)c2ccc(F)cc2)cc1`, the displacement is -10.9%.

In the case of `CCN(CC)C(=O)c1sc(NC(=O)c2ccc([N+](=O)[O-])cc2)c(C(=O)OC(C)C)c1C`, the displacement was -3.3%.

For the molecule `COc1ccc(/C=C2\N=C(c3ccccc3I)OC2=O)cc1`, the displacement was -2.3%.

`CONC(=O)c1ccc(C(=O)c2c(C)cc(C)cc2C)cc1`: the displacement is -0.5%.

On to `CCc1ccc(/C=N\N2CCN(c3ccc(C)cc3)CC2)cc1`, for which the displacement is -1%.

Take `Cc1ccc(C2C(C(=O)/C=C/c3ccccc3)=C(O)C(=O)N2CCCCCC(=O)O)cc1` (configuration not stated): the displacement was 0.7%.
